Target: the molecule itself
Test: cryo-EM structure

B1: amino-terminal half of TFG ([…]) (domain or fragment)
chain: not shown
stoichiometry N: 8
